Measurements from PubChem BioAssay AID488969 (Vanderbilt High Throughput Screening Facility, 2010).
Over roughly 110,000 compounds, “z-score” has its median near -0.1; the highest 2% begin near 2. Some of the results follow. Active and inactive are the calls of the source.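 How the source made its calls: active means z-score in the third read window above 3 or below -3; inactive means the rest.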

Target: Metabotropic glutamate receptor 8 (Rattus norvegicus) (UniProt P70579)
Test: rat mGluR8 modulators via GIRK flux, primary screen, cell-based, thallium flux, HTS (AID 488969)
Details: HEK293 rat mGluR8, GIRK (G protein-gated inwardly rectifying potassium channel) thallium flux, FluoZin2; at 10 µM; stronger effect = higher value; submaximal glutamate (EC20) added with thallium

Sequence of UniProt P70579 (P70579 whole entry, looked up): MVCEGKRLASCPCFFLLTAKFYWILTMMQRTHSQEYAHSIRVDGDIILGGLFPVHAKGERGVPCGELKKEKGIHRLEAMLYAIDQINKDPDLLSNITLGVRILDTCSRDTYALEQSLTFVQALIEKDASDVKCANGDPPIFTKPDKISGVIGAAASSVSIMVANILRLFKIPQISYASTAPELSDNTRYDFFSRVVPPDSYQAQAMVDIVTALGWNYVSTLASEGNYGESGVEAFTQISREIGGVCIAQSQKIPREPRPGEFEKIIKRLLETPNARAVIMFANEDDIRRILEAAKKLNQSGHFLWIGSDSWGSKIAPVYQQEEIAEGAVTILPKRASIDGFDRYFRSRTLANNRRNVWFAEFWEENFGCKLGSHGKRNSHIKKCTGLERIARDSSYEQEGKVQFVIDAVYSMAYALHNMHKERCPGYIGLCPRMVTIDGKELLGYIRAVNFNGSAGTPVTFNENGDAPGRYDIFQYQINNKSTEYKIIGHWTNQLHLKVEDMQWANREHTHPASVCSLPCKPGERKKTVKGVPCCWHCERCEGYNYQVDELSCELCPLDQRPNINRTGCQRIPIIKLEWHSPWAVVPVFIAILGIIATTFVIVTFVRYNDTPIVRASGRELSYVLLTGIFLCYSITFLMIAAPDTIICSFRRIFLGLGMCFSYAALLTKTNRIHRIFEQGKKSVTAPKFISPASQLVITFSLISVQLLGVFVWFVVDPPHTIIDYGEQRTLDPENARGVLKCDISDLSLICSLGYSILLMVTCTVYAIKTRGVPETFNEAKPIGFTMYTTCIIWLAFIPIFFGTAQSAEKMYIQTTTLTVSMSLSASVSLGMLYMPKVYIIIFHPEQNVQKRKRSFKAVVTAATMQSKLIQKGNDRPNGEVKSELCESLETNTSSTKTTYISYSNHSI

Row | SMILES | z-score
1 | Cc1ccccc1N(CC(=O)N/N=C/c1ccc(F)cc1)C(=O)c1ccccc1 | -0.215
2 | Cc1ccc(Sc2ccc(NC(=O)CCl)cc2)c(C)c1 | 0.511
3 | CCc1ccc(NC(=O)N(Cc2cccnc2)Cc2ccco2)cc1 | -0.111
4 | O=C(Nc1nc2c(s1)CCCC2)c1cc2n(n1)C(C(F)(F)F)CC(C1CC1)N2 (stereo not given) | -0.188
5 | O=C(Nc1nnc(-c2ccccc2Cl)o1)c1ccc(S(=O)(=O)N2CCCCCC2)cc1 | active: 13.1
6 | Cc1ccc(C(=O)COc2ccccc2N2C(=O)c3ccccc3C2=O)cc1 | 0.000589
7 | CCOC(=O)CSc1nc2ccccc2c(=O)n1CCCCCC(=O)NCc1ccco1 | -0.403
8 | CCCN(CCC)C(=S)NC(=O)c1ccc(Cl)cc1Cl | active: 14.4
9 | CCCSc1nc2c(cnn2-c2ccc(F)cc2)c(=O)[nH]1 | -1.82
10 | O=C(CSc1ccc2c(c1)OCCO2)Nc1ccc(Br)cc1 | -0.57
11 | Cc1ccc(C(C(=O)NC2CCCC2)N(C(=O)c2csnn2)C2CCCC2)o1 (stereo not given) | -0.0869
12 | CC(C)NC(=S)N1CCN(S(=O)(=O)c2cccc(C(F)(F)F)c2)CC1 | -0.0156
13 | NC(=O)c1ccc[n+](CC(=O)OCCC23CC4CC(CC(C4)C2)C3)c1 | 0.101
14 | CCN1CCN(c2nc(N)c([N+](=O)[O-])c(Nc3ccc(C)cc3)n2)CC1 | 0.102
15 | CCCCCC(=O)Nc1ccc(N2CCN(C(=O)c3ccccc3)CC2)cc1 | -0.421
16 | Clc1ccc(OCCn2ccnc2)c2ccccc12 | 0.847
17 | Nc1nnnn1/N=C\c1ccc(Cl)c([N+](=O)[O-])c1 | -0.138
18 | Cc1n(CC(O)COCc2ccccc2)c2ccccc2[n+]1C (stereo not given) | -0.0583
19 | COc1cccc(CNCCc2c[nH]c3ccccc23)c1OCc1ccc(F)cc1 | 2.04
20 | CC(=O)Nc1c2c(nn1-c1cccc(Cl)c1)CS(=O)C2 (stereo not given) | -0.47
21 | COc1ccc(N2C(N)=NC(N)=NC23CCCC3)cc1 | 0.43
22 | OC(COCC1COc2ccccc2O1)CN1CCN(c2ccc(F)cc2)CC1 (stereo not given) | -0.297
23 | O=C(Cn1cnc2ccccc2c1=O)Nc1ccc2c(c1)OCCO2 | 0.113
24 | COc1cccc(-n2c(CNc3ccc(F)cc3)nnc2SCC(N)=O)c1 | 0.531
25 | CCc1ccc(-c2csc(NC(=O)COC(=O)CCc3nc4ccccc4s3)n2)cc1 | -0.0493
26 | Cc1cc(C)c2c(n1)nn1c(NCCCN(C)C)cc(C)nc21 | -0.235
27 | N#Cc1c(C(F)(F)F)cc(-c2ccccc2)nc1SCCN1CCOCC1 | -0.199
28 | Cc1ccc(S(=O)(=O)N2CCN(C)CC2)cc1[N+](=O)[O-] | -0.0804
29 | COc1ccc(-n2c(=S)[nH]c3sc4c(c3c2=O)CCc2ccccc2-4)cc1 | 0.114
30 | Cc1cccc(CSc2nnc(-c3cccs3)n2Cc2ccco2)c1 | -0.616
